# From PubChem BioAssay (NCATS)
# Inconclusive results, whose numbers are uncertain, are shown with a selection of clear calls. For part of these data: Potencies of inconclusive entries are left out as doubtful fits. Activity calls are given as the source filed them. Unless noted, the call rests on the fitted dose curve; in most records, active means well fitted curve in the direction sought with a large enough effect; inconclusive means small, poorly fitted or top-dose-only effect, or another doubt; inactive means no such curve, though single readings can be large; an effect the other way counts as inactive or inconclusive.
# Legend:
# [1] = qHTS of pediatric cancer cell lines to identify multiple opportunities for drug repurposing: Primary screen for A673 cells (AID 1347092); settings: A673 Ewing sarcoma viability, CellTiter-Glo ATP luminescence, 48 h; activity change, negative = cytotoxic: at 46 µM (top of the series); further: nearly all actives have a fitted effect of over 45% in size
# How it was run: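 A673 cells (500-1,000 cells/well) were treated 48 hours at 37 degrees C with compounds at 11-point (0.78 nM to 46 µM) or 8-point (0.59 nM to 46 µM) dilutions. Viability read by CellTiter-Glo luminescence; concentration-response curves fitted.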
# [2] = qHTS of pediatric cancer cell lines to identify multiple opportunities for drug repurposing: Primary screen for Saos-2 cells (AID 1347097); settings: Saos-2 viability, CellTiter-Glo ATP luminescence, 48 h; activity change, negative = cytotoxic: at 46 µM (top of the series); further: nearly all actives have a fitted effect of over 40% in size
# How it was run: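 Plated cells (500-1,000 per well, growth media) were allowed to settle for 5 hours, treated with compound dilutions for 48 hours, then lysed with CellTiter-Glo for 15 min at room temperature before luminescence reading.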
# [3] = Primary qHTS for inhibitors of nuclear receptor binding SET domain protein 2 (NSD2) in an RCH-ACV wild type WT cells (2C) (AID 1645877); settings: activity change, negative = cell killing: at 44.9 µM (top of the series) unless noted; further: nearly all actives have a fitted effect of over 70% in size
# CASKI = assay: Primary qHTS to identify gynecologic anti-cancer compounds using libraries of approved drugs and bioactive compounds (AID 1345084); settings: Gynecologic cancer cell panel viability, ATPlite luminescence, 48 h; series mostly up to 57.5 µM; further: nearly all actives have a fitted effect of over 55% in size; further: potency means the concentration at half of the fitted maximal effect
# How it was run: (§1)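 Cytotoxicity screen measuring ATP content by luciferase luminescence. Each compound is applied at five concentrations for 48 h at 37 C with 5% CO2.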
# [4] = molecular target: Cytochrome P450 2D6 (Homo sapiens) (UniProt P10635); assay: Cytochrome P450 family 2 subfamily D member 6 (CYP2D6) small molecule antagonists: luciferase biochemical (cell-free) qHTS assay (AID 1645840; active means well fitted curve in the direction sought with a large enough effect in the repeat runs; inconclusive means weak or mixed curves; inactive means no such curve, though single readings can be large; an effect the other way counts as inactive or inconclusive; further: nearly all actives have a fitted effect of over 55% in size)
# How it was run: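 P450-Glo CYP2D6 system: proluciferin substrate converted by enzyme to luciferin, read by luminescence proportional to activity. Enzyme-substrate mix with compound 10 min at room temperature, then NADPH regeneration 1 h before detection reagent.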
# [5] = molecular target: Cytochrome P450 3A4 (Homo sapiens) (UniProt P08684); assay: Cytochrome P450 family 3 subfamily A member 4 (CYP3A4) small molecule antagonists: luciferase qHTS assay (AID 1645841; active means well fitted curve in the direction sought with a large enough effect in the repeat runs; inconclusive means weak or mixed curves; inactive means no such curve, though single readings can be large; an effect the other way counts as inactive or inconclusive; further: potency means the concentration at half of the fitted maximal effect; nearly all actives have a fitted effect of over 45% in size)
# How it was run: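 Luminescent CYP3A4 activity readout: compounds plus enzyme-substrate mix 10 min at room temperature, reaction started with NADPH regenerating system for 1 h, stopped with detection reagent, read after 20 min. Ketoconazole served as control.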
# SKOV3 = assay: Primary qHTS to identify gynecologic anti-cancer compounds using libraries of approved drugs and bioactive compounds (AID 1345084); settings: Gynecologic cancer cell panel viability, ATPlite luminescence, 48 h; series mostly up to 57.5 µM; further: nearly all actives have a fitted effect of over 55% in size; further: potency means the concentration at half of the fitted maximal effect
# How it was run: as §1
# Tov-21-G = assay: as above; settings: Gynecologic cancer cell panel viability, ATPlite luminescence, 48 h; series mostly up to 57.5 µM
# How it was run: as §1
# [6] = Primary fluorescence-based thiol-reactive (MSTI) qHTS assay for identification of artifact compounds. (AID 1845221);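 further: potency means the concentration at half of the fitted maximal effect; thiol-reactive compounds lower the probe fluorescence signal; nearly all actives have a fitted effect of over 65% in size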
# How it was run: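 Curve-fitted percent inhibition (4-parameter Hill) derived from fluorescence, Ex 525/Em 598 nm, scaled with Acetyl-MSTI and MSTI; 1 h incubation at room temperature.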
# [7] = Primary redox qHTS assay for identification of artifact compounds. (AID 1845223); further: potency means the concentration at half of the fitted maximal effect
# How it was run: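 Redox-cycling detection via DTT (250 uM final) oxidation coupled to Amplex Red (25 uM)/HRP (250 mU/mL) in HBSS. 15 min preincubation plus 30 min after DTT, room temperature. Ex/Em 525/598 nm; 4-parameter Hill fit against DMSO and 10 uM DA3003.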
# PA-1 = assay: Primary qHTS to identify gynecologic anti-cancer compounds using libraries of approved drugs and bioactive compounds (AID 1345084); settings: Gynecologic cancer cell panel viability, ATPlite luminescence, 48 h; series mostly up to 57.5 µM; further: nearly all actives have a fitted effect of over 55% in size; further: potency means the concentration at half of the fitted maximal effect
# How it was run: as §1
# [8] = qHTS of pediatric cancer cell lines to identify multiple opportunities for drug repurposing: Primary screen for SJ-GBM2 cells (AID 1347091); further: potency means the concentration at half of the fitted maximal effect
# How it was run: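 Cell viability, CellTiter-Glo luminescence; 500-1,000 cells/well, 8- or 11-point titration, 48 h compound exposure at 37 degrees C, 5% CO2. Controls: DMSO neutral, bortezomib 2.3 µM final as positive.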
# [9] = qHTS of pediatric cancer cell lines to identify multiple opportunities for drug repurposing: Primary screen for SK-N-MC cells (AID 1347093); settings: SK-N-MC viability, CellTiter-Glo luminescence, 48 h; activity change, negative = cytotoxic: at 46 µM (top of the series)
# How it was run: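 Metabolically active cells were quantified by ATP-dependent luminescence (CellTiter-Glo, 15 min at room temperature) following 48 h treatment. Cells had been plated at 500-1,000 per well and settled for 5 h beforehand.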
# [10] = qHTS of pediatric cancer cell lines to identify multiple opportunities for drug repurposing: Primary screen for SK-N-SH cells (AID 1347098); further: potency means the concentration at half of the fitted maximal effect; nearly all actives have a fitted effect of over 65% in size
# How it was run: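 Cells (500-1,000/well) rested 5 h, then received compounds for 48 h; metabolically active cells were measured by CellTiter-Glo luminescence. Final concentrations spanned up to 46 µM (MIPE, 11-point) or 0.59 nM-46 µM (NPC, 8-point) in primary screens, 11-point in follow-ups.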
# [11] = molecular target: Cytochrome P450 2C9 (Homo sapiens) (UniProt P11712); assay: Cytochrome P450 family 2 subfamily C member 9 (CYP2C9) small molecule antagonists: luciferase biochemical (cell-free) qHTS assay (AID 1645842; active means well fitted curve in the direction sought with a large enough effect in the repeat runs; inconclusive means weak or mixed curves; inactive means no such curve, though single readings can be large; an effect the other way counts as inactive or inconclusive; further: nearly all actives have a fitted effect of over 55% in size)
# How it was run: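 P450-Glo CYP2C9 system: proluciferin substrate with enzyme in mix containing 0.4% BSA, 10 min at room temperature, then NADPH regeneration solution added and incubated 1 h at 37C. Detection reagent stopped reaction; luminescence read after 20 min as RLU.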
# [12] = molecular target: Phospholipid hydroperoxide glutathione peroxidase GPX4 (Homo sapiens) (UniProt P36969); assay: Primary qHTS Assay for Inhibitors of Recombinant Selenoprotein Glutathione Peroxidase 4 (GPX4) (AID 1845192); settings: activity change, negative = inhibition: at 50 µM (top of the series) unless noted; further: nearly all actives have a fitted effect of over 65% in size; further: potency means the concentration at half of the fitted maximal effect
# How it was run: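 NADPH consumption followed by fluorescence at 340/450 nm, t=0 and after 15 min at room temperature. Reaction started with cumene hydroperoxide (0.5 mM final) after 30 min compound–GPX4 preincubation; final 200 nM GPX4, 100 nM GR, 1 mM GSH, 0.5 mM NADPH.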
# 7G8 = assay: qHTS profiling for inhibitors of Plasmodium falciparum proliferation (AID 504749); further: nearly all actives have a fitted effect of over 60% in size; settings: P. falciparum in erythrocytes, SYBR Green DNA, 72 h; series mostly up to 28.7 µM
# How it was run: (§2)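 SYBR Green fluorescence of parasite DNA, read after lysis and overnight dark incubation, measured growth over 72 h in erythrocyte culture at 0.3% parasitemia and 2.5% hematocrit. Data normalised to DMSO and 0.29 uM artemisinin, with plate-drift correction.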
# AA1029 = assay: as above; settings: P. falciparum in erythrocytes, SYBR Green DNA, 72 h; series mostly up to 28.7 µM
# How it was run: as §2
# CP238 = assay: as above; settings: P. falciparum in erythrocytes, SYBR Green DNA, 72 h; series mostly up to 28.7 µM
# How it was run: as §2
# CP266 = assay: as above; settings: P. falciparum in erythrocytes, SYBR Green DNA, 72 h; series mostly up to 28.7 µM
# How it was run: as §2
# CP291 = assay: as above; settings: P. falciparum in erythrocytes, SYBR Green DNA, 72 h; series mostly up to 28.7 µM
# How it was run: as §2
# [13] = tested on: Zika virus NS2B-NS3 protease (unlinked complex); assay: Primary screen GU Rhodamine qHTS for Zika virus inhibitors: Unlinked NS2B-NS3 protease assay (AID 1347159); settings: Recombinant ZIKV NS2B-NS3 protease, Rhodamine110 substrate fluorescence; activity change, negative = inhibition: at 107 µM (top of the series); further: nearly all actives have a fitted effect of over 60% in size
# How it was run: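 In dose–response format, inhibition of unlinked protease (25 nM) was measured with 1.5 microM bis-peptide Rhodamine110 substrate. Aprotinin served as the intraplate control.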
# [14] = Primary qHTS for inhibitors of nuclear receptor binding SET domain protein 2 (NSD2) in an isogenic RCH-ACV NSD2 p.E1099K mutant (9B) (AID 1645876); settings: activity change, negative = viability loss: at 44.9 µM (top of the series) unless noted; further: nearly all actives have a fitted effect of over 70% in size
# [15] = molecular target: Glutathione peroxidase 1 (Homo sapiens) (UniProt P07203); assay: Primary qHTS Assay for Inhibitors of Recombinant Selenoprotein Glutathione Peroxidase 1 (GPX1) (AID 1845191); further: potency means the concentration at half of the fitted maximal effect; nearly all actives have a fitted effect of over 65% in size
# How it was run: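 NADPH consumption tracked by fluorescence at 340/450 nm between t=0 and t=15 min, room temperature. Final mix: 10 nM GPX1, 100 nM glutathione reductase, 1 mM GSH, 0.5 mM NADPH, 0.5 mM cumene hydroperoxide, 0.01% BSA; 30 min compound–enzyme preincubation.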
# Tags describe the fitted curve by direction and shape.
# UniProt P36969, sequence (P36969 whole entry, looked up): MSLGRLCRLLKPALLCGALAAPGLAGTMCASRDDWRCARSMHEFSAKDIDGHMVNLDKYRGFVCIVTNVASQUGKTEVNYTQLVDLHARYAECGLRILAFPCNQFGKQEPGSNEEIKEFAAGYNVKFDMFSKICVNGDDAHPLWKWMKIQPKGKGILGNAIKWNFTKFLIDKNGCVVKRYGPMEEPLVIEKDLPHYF
# UniProt P11712, sequence (P11712 whole entry, looked up): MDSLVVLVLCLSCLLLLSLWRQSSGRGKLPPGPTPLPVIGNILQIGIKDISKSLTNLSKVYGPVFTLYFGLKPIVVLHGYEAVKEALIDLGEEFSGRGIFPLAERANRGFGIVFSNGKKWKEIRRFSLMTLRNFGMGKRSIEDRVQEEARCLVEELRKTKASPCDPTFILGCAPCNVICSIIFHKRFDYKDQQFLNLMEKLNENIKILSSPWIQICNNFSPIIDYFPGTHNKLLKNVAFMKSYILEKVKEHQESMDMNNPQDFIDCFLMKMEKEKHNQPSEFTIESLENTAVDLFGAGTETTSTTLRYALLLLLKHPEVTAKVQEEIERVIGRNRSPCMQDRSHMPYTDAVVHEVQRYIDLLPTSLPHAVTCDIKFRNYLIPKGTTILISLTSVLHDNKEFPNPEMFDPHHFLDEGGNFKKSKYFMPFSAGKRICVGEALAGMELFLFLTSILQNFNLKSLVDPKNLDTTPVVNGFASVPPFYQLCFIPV
# UniProt P10635, sequence (P10635 whole entry, looked up): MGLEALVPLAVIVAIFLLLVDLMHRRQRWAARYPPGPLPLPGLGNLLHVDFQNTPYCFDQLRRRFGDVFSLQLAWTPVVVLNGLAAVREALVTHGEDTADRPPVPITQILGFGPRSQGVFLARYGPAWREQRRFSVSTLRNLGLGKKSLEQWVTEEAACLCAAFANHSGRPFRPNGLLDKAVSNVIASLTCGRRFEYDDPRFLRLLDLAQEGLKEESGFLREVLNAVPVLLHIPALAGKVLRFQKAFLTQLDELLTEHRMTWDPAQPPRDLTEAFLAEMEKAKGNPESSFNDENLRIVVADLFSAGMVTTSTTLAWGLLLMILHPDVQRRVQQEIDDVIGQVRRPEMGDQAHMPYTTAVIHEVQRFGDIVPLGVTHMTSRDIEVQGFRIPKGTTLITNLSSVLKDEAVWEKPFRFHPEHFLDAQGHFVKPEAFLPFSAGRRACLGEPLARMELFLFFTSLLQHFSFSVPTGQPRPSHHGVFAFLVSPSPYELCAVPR
# UniProt P08684, sequence (P08684 whole entry, looked up): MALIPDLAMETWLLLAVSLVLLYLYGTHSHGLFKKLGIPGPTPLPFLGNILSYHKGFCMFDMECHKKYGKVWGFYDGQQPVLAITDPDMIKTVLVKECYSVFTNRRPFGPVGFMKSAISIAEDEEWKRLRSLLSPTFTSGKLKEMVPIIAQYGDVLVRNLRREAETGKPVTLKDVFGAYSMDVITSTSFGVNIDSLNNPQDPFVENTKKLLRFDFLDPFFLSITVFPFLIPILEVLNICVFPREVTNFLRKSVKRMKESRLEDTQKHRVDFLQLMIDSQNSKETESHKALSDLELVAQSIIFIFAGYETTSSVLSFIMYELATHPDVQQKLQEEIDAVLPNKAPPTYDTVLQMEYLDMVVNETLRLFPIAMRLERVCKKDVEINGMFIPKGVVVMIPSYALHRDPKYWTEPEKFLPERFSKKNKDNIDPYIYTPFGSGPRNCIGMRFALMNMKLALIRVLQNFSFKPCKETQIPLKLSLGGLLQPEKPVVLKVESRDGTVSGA
# UniProt P07203, sequence (P07203 whole entry, looked up): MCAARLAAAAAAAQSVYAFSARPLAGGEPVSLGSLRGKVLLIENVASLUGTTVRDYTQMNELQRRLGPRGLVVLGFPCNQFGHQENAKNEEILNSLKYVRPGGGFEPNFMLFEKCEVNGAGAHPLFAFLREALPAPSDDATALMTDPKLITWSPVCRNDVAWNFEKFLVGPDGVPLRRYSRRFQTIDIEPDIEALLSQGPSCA
structure (smiles),measurement,setting,value
C=C(C)C(=O)OCC(O)CO (configuration not stated),Potency,[1],inactive
same,Potency,[2],inactive
same,Potency,[3],inactive
same,Potency,CASKI,"inconclusive [cytotoxic, single point]"
CC1(C)OC(=O)C(OCC2CC2)=C1c1ccc(S(C)(=O)=O)cc1,Potency,[4],inactive
same,Potency,[5],"inconclusive [falling, partial curve, poor fit]"
same,Potency,CASKI,inactive
same,Potency,SKOV3,"inconclusive [rising, single point]"
same,Potency,Tov-21-G,inactive
COc1cc(C(CO)C(OC2OC(CO)C(O)C(O)C2O)c2ccc(O)c(OC)c2)ccc1O (configuration not stated),Potency,[6],"inconclusive [inhibitor, partial curve]"
same,Potency,[7],inactive
same,Potency,CASKI,inactive
same,Potency,PA-1,"inconclusive [rising, single point]"
Nc1nc(-c2ccccc2)c(Br)c(=O)[nH]1,Potency,[8],"inconclusive [cytotoxic, partial curve, poor fit]"
same,Potency,[9],inactive
same,Potency,[10],"inconclusive [cytotoxic, partial curve, poor fit]"
same,Potency,[11],inactive
same,Potency,[3],inactive
same,Potency,[12],inactive
same,Potency,CASKI,inactive
same,Potency,PA-1,inactive
same,Potency,7G8,inactive
same,Potency,AA1029,inactive
same,Potency,CP238,inactive
same,Potency,CP266,inactive
same,Potency,CP291,inactive
C[C@H]1[C@H](C)CC[C@]2(C(=O)O)CC[C@]3(C(=O)O)C(=CCC4[C@@]5(C)CC[C@H](O[C@@H]6O[C@H](C)[C@@H](O)[C@H](O)[C@H]6O)C(C)(C)C5CC[C@]43C)[C@H]12 (some centres not stated),Potency,[13],inactive
same,Potency,CASKI,inactive
same,Potency,SKOV3,"inconclusive [rising, full curve, poor fit]"
CCc1cc(CC[C@]2(C3CCCC3)CC(O)=C(Cc3nc4nc(C)cc(C)n4n3)C(=O)O2)cc(CC)n1,Potency,[14],inactive
same,Potency,[7],"inconclusive [activator, full curve, poor fit]"
same,Potency,CASKI,inactive
same,Potency,SKOV3,inactive
same,Potency,Tov-21-G,inactive
NCc1c[nH]c(=S)n1[C@@H]1CCc2c(F)cc(F)cc2C1,Potency,[15],"inconclusive [inhibitor, partial curve]"
same,Potency,[12],"inconclusive [inhibitor, partial curve, poor fit]"
same,Potency,[6],"inconclusive [inhibitor, partial curve]"
same,Potency,CASKI,inactive
same,Potency,SKOV3,"inconclusive [rising, single point]"
Cc1nc(-c2cccnc2)sc1C(=O)Nc1ccccc1-c1cn2c(CN3CCOCC3)csc2n1,Potency,[6],"inconclusive [inhibitor, partial curve, poor fit]"
same,Potency,CASKI,"inconclusive [rising, single point]"
same,Potency,SKOV3,inactive
